According to publication PMC9911399, “Two distinct binding modes provide the RNA-binding protein RbFox with extraordinary sequence specificity”:
Residue numbers refer to the chain shown, from its start. Some of the results follow.

B1: GACGGCU (DNA:RNA)
RNA: GGGAGACCGGAAUUCAGAUUGUCCGACGGCUUUAAAUCCCGUCGUAGCCACCA
DNA 1: CAATCTGAATTCCGGTCTCCC
DNA 2: TGGTGGCTACGACGGGATT
B2: AUUCGCA (DNA:RNA)
RNA: B1 RNA with G25A, A26U, C27U, G28C, U31A
DNA 1: CAATCTGAATTCCGGTCTCCC
DNA 2: TGGTGGCTACGACGGGATT
B3: UAAUAUC (DNA:RNA)
RNA: B1 RNA with G25U, C27A, G28U, G29A, C30U, U31C
DNA 1: CAATCTGAATTCCGGTCTCCC
DNA 2: TGGTGGCTACGACGGGATT
B4: UGCGUCU (DNA:RNA)
RNA: B1 RNA with G25U, A26G, G29U
DNA 1: CAATCTGAATTCCGGTCTCCC
DNA 2: TGGTGGCTACGACGGGATT
B5: GCUCUCG (DNA:RNA)
RNA: B1 RNA with A26C, C27U, G28C, G29U, U31G
DNA 1: CAATCTGAATTCCGGTCTCCC
DNA 2: TGGTGGCTACGACGGGATT
B6: GAAUACU (DNA:RNA)
RNA: B1 RNA with C27A, G28U, G29A
DNA 1: CAATCTGAATTCCGGTCTCCC
DNA 2: TGGTGGCTACGACGGGATT
B7: CGCUUUU (DNA:RNA)
RNA: B1 RNA with G25C, A26G, G28U, G29U, C30U
DNA 1: CAATCTGAATTCCGGTCTCCC
DNA 2: TGGTGGCTACGACGGGATT
B8: CGGUGCG (DNA:RNA)
RNA: B1 RNA with G25C, A26G, C27G, G28U, U31G
DNA 1: CAATCTGAATTCCGGTCTCCC
DNA 2: TGGTGGCTACGACGGGATT
B9: GGAUCGC (DNA:RNA)
RNA: B1 RNA with A26G, C27A, G28U, G29C, C30G, U31C
DNA 1: CAATCTGAATTCCGGTCTCCC
DNA 2: TGGTGGCTACGACGGGATT
B10: AUACGUA (DNA:RNA)
RNA: B1 RNA with G25A, A26U, C27A, G28C, C30U, U31A
DNA 1: CAATCTGAATTCCGGTCTCCC
DNA 2: TGGTGGCTACGACGGGATT
B11: UUAACAA (DNA:RNA)
RNA: GGGAGACCGGAAUUCAGAUUGUCCUUAACAAUUAAAUCCCGUCGUAGCCACCA
DNA 1: CAATCTGAATTCCGGTCTCCC
DNA 2: TGGTGGCTACGACGGGATT
B12: CGCGCUG (DNA:RNA)
RNA: B1 RNA with G25C, A26G, G29C, C30U, U31G
DNA 1: CAATCTGAATTCCGGTCTCCC
DNA 2: TGGTGGCTACGACGGGATT
B13: UCCAAGU (DNA:RNA)
RNA: B1 RNA with G25U, A26C, G28A, G29A, C30G
DNA 1: CAATCTGAATTCCGGTCTCCC
DNA 2: TGGTGGCTACGACGGGATT
B14: GGUGAUA (DNA:RNA)
RNA: B1 RNA with A26G, C27U, G29A, C30U, U31A
DNA 1: CAATCTGAATTCCGGTCTCCC
DNA 2: TGGTGGCTACGACGGGATT
B15: GGGUCGU (DNA:RNA)
RNA: B1 RNA with A26G, C27G, G28U, G29C, C30G
DNA 1: CAATCTGAATTCCGGTCTCCC
DNA 2: TGGTGGCTACGACGGGATT
B16: CGUGGAC (DNA:RNA)
RNA: B1 RNA with G25C, A26G, C27U, C30A, U31C
DNA 1: CAATCTGAATTCCGGTCTCCC
DNA 2: TGGTGGCTACGACGGGATT
B17: GAGACGA (DNA:RNA)
RNA: B11 RNA with U25G, U26A, A27G, A30G
DNA 1: CAATCTGAATTCCGGTCTCCC
DNA 2: TGGTGGCTACGACGGGATT
B18: CGCAGGU (DNA:RNA)
RNA: B1 RNA with G25C, A26G, G28A, C30G
DNA 1: CAATCTGAATTCCGGTCTCCC
DNA 2: TGGTGGCTACGACGGGATT
B19: CGGCGAC (DNA:RNA)
RNA: B1 RNA with G25C, A26G, C27G, G28C, C30A, U31C
DNA 1: CAATCTGAATTCCGGTCTCCC
DNA 2: TGGTGGCTACGACGGGATT
B20: CUUAAAG (DNA:RNA)
RNA: B11 RNA with U25C, A27U, C29A, A31G
DNA 1: CAATCTGAATTCCGGTCTCCC
DNA 2: TGGTGGCTACGACGGGATT
B21: GUAAUUG (DNA:RNA)
RNA: B11 RNA with U25G, C29U, A30U, A31G
DNA 1: CAATCTGAATTCCGGTCTCCC
DNA 2: TGGTGGCTACGACGGGATT
B22: AGAGAUG (DNA:RNA)
RNA: B1 RNA with G25A, A26G, C27A, G29A, C30U, U31G
DNA 1: CAATCTGAATTCCGGTCTCCC
DNA 2: TGGTGGCTACGACGGGATT
B23: AUAGAGG (DNA:RNA)
RNA: B11 RNA with U25A, A28G, C29A, A30G, A31G
DNA 1: CAATCTGAATTCCGGTCTCCC
DNA 2: TGGTGGCTACGACGGGATT
B24: CCUUCCA (DNA:RNA)
RNA: B11 RNA with U25C, U26C, A27U, A28U, A30C
DNA 1: CAATCTGAATTCCGGTCTCCC
DNA 2: TGGTGGCTACGACGGGATT
B25: ACACCGA (DNA:RNA)
RNA: B11 RNA with U25A, U26C, A28C, A30G
DNA 1: CAATCTGAATTCCGGTCTCCC
DNA 2: TGGTGGCTACGACGGGATT
B26: UGAUCCG (DNA:RNA)
RNA: B11 RNA with U26G, A28U, A30C, A31G
DNA 1: CAATCTGAATTCCGGTCTCCC
DNA 2: TGGTGGCTACGACGGGATT
B27: GUAAUCC (DNA:RNA)
RNA: B11 RNA with U25G, C29U, A30C, A31C
DNA 1: CAATCTGAATTCCGGTCTCCC
DNA 2: TGGTGGCTACGACGGGATT
B28: UAUGACG (DNA:RNA)
RNA: B1 RNA with G25U, C27U, G29A, U31G
DNA 1: CAATCTGAATTCCGGTCTCCC
DNA 2: TGGTGGCTACGACGGGATT
B29: UUAAGAC (DNA:RNA)
RNA: B11 RNA with C29G, A31C
DNA 1: CAATCTGAATTCCGGTCTCCC
DNA 2: TGGTGGCTACGACGGGATT
B30: UUAGGAU (DNA:RNA)
RNA: B11 RNA with A28G, C29G, A31U
DNA 1: CAATCTGAATTCCGGTCTCCC
DNA 2: TGGTGGCTACGACGGGATT
B31: AUGGAUG (DNA:RNA)
RNA: B1 RNA with G25A, A26U, C27G, G29A, C30U, U31G
DNA 1: CAATCTGAATTCCGGTCTCCC
DNA 2: TGGTGGCTACGACGGGATT

Each binder was assayed against T1, RBFOX1 RRM (Homo sapiens, UniProt Q9NWB1 109-208) (assay: EMSA; HiTS-Eq, 1 nM pool, 10 min; buffer printed only for the single-RNA assays: 10 mM Tris pH 7.5, 150 mM NaCl, 3.4 mM EDTA, 0.001% NP-40, 30 C). Details: tags: His6 N-terminal (pET28a); label: 5' 32P.
T1 sequence: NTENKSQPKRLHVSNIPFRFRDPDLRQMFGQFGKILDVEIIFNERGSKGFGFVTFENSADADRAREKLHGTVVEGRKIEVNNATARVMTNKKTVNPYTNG
Summary of the method: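 These values rest on relative association constants, computed from read-count changes of each RNA species versus the control reaction and normalised to the cognate motif. Reads came from free RNA recovered by 8% native PAGE after purified RbFox RRM (wild type or mutant) at increasing concentrations was equilibrated for 10 min in 50 µL with 1 nM of a 5′-radiolabelled pool with 7 randomized nucleotides and DNA-annealed flanks.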
With B1 the binding signal was 0.0202 KA relative to UGCAUGU. With B2 the binding signal was 0.0111 KA relative to UGCAUGU. B3 was tested, and the binding signal was 0.00758 KA relative to UGCAUGU. With B4 the binding signal was 0.0188 KA relative to UGCAUGU. For B5, the binding signal was 0.0129 KA relative to UGCAUGU. In the case of B6, the binding signal is reported as 0.00268 KA relative to UGCAUGU. With B7 the binding signal was 0.0138 KA relative to UGCAUGU. B8 was tested, and the binding signal was 0.0207 KA relative to UGCAUGU. For B9, the binding signal was 0.0233 KA relative to UGCAUGU. In the case of B10, the binding signal is reported as 0.00314 KA relative to UGCAUGU. B11 was tested, and the binding signal was 0.00291 KA relative to UGCAUGU. B12 was tested, and the binding signal was 0.0173 KA relative to UGCAUGU. For B13, the binding signal was 0.0041 KA relative to UGCAUGU. B14 was tested, and the binding signal was 0.0103 KA relative to UGCAUGU. In the case of B15, the binding signal is reported as 0.0214 KA relative to UGCAUGU. B16 was tested, and the binding signal was 0.0096 KA relative to UGCAUGU. With B17 the binding signal was 0.00972 KA relative to UGCAUGU. For B18, the binding signal was 0.0129 KA relative to UGCAUGU. For B19, the binding signal was 0.014 KA relative to UGCAUGU. For B20, the binding signal was 0.00475 KA relative to UGCAUGU. B21 was tested, and the binding signal was 0.0106 KA relative to UGCAUGU. In the case of B22, the binding signal is reported as 0.011 KA relative to UGCAUGU. In the case of B23, the binding signal is reported as 0.00613 KA relative to UGCAUGU. B24 was tested, and the binding signal was 0.00375 KA relative to UGCAUGU. For B25, the binding signal was 0.000712 KA relative to UGCAUGU. With B26 the binding signal was 0.0149 KA relative to UGCAUGU. For B27, the binding signal was 0.0106 KA relative to UGCAUGU. B28 was tested, and the binding signal was 0.0056 KA relative to UGCAUGU. For B29, the binding signal was 0.00837 KA relative to UGCAUGU. With B30 the binding signal was 0.00616 KA relative to UGCAUGU. B31 was tested, and the binding signal was 0.0216 KA relative to UGCAUGU.
